The list shows a part of the results.
Each sequence was assayed on PfHDP1 homeodomain (GST-tagged) (assay: gcPBM binding intensity (ln(normalized median fluorescence intensity)); higher = stronger DNA binding).
Outline: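 DNA-binding domains from P. falciparum, fused to GST and produced in E. coli, were put on an Agilent 4 × 180k double-stranded probe array for 1 h in 1× PBS holding 1% milk, 0.2 mg/ml BSA, 0.5% salmon testes DNA and 0.03% Triton X-100. Probes were primer-extended, 36 bp long and drawn from intergenic genomic regions, with negative controls included. After Alexa488 anti-GST antibody detection and a 488 nm scan, binding intensity was set as the highest Masliner-normalised natural-log median intensity across replicate spots of either probe orientation.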

Sequence	gcPBM binding intensity (ln)
ATTTAATTCGTACATACACACGCACATATATATATA [CACACA_site8415]	8.98
ACATATTATTCAAGTGCACACTTTATATTTATGATT [CACACA_site3295]	8.81
TTTTTTTTTAAAACATAATAAAAAATAAAACAACCT [GTGCAC_negctrl_site92]	6.84
ATAATATATTTAATCATACACACATTTATGTACCTA [CACACA_site1719]	6.44
AAAAATAAAGGGTGTGCACACAAAAATATATATATA [CACACA_site1727]	10.7
CAAAAATAATAGAATACATGCAAAAATAAATGTATA [TGCATGCA_site196]	6.51
AAGAAAATAAAAAGGTAAATATGTATAAATAAATAA [TGCATGCA_negctrl_site88]	6.36
TTTTTTGAAAATAAATGTACGAATTTTATATTTAAA [XGTACX_site2768]	6.16
TGAAATAAAATTATTTGTACATATCGGAAAAAAAAA [XGTACX_site7131]	6.37
AAGGCATATATAATTTGTACATATTAAGAATTAGAT [XGTACX_site8660]	6.82
AAATTACCCATCCATACACACATATTTTTTTTAATT [CACACA_site2189]	7.01
GATACAGATGGACACACACACATACATAAATACATA [CACACA_site5833]	6.89
TAATGACAATAAAAATAAATAAATAAAAAAAAAAAA [TGCATGCA_negctrl_site321]	6.15
AATAAATAAATAAATAAATAAATATATATATATATA [GTGCAC_negctrl_site330]	9.07
ATATATTATCTGTACACACACATATAAGGGATTATA [CACACA_site4180]	6.8
TTTATTTTGTTTATGGTGCATTTTATGTAAATATAT	9.45
AATTTTTATACGGATACACACAAAAAAAAATAAAAA [CACACA_site897]	6.64
TAAATATATTTATAAGCACACACTAATAAACCCACA [CACACA_site390]	7.1
AAAATATATTATTATTGTACATATATTTTCATTTAC [XGTACX_site4593]	6.4

Sequence	gcPBM binding intensity (ln)
TACAATATAAAATACACACACACAAACATATATTTA [CACACA_site5941]	7.08
TATATATATTTATAATGTACACATATATGTAAATAT [XGTACX_site3695]	6.73
TGCCCTAACCATACTACACACACTGCTCAAAATAGT [CACACA_site2219]	7.09
AAAAAATACATACATACACACATATTTATTTATATA [CACACA_site6554]	6.42
TTATGCATATATTATGCATGTAGTTTTAAATCACAT [TGCATGCA_site104]	6.37
TATATACACATTTTTATACACACTTGTTTTATAAAA [CACACA_site8139]	7.12
GCACAAATATATATATATATATATATATATATATAT [GTGCAC_negctrl_site661]	9.39
ATAATTATATACCATGCACACAAATATTCATACAGG [CACACA_site9343]	8.83
AAGAACCATATTTAAACACACATACCTATATAAATA [CACACA_site7553]	6.32
CAAAAGAAGGTAAACACACACACACCCATACAAAAA [CACACA_site3765]	7
ATTATTCGTTTTAAATGTACTCATATAAACGATAAA [XGTACX_site7866]	6.27
TAAATAAATCCACATACACACACGACGCTAGTATAT [CACACA_site1060]	6.28
TTTTTATTTTTAGTAGTGCATTAATCATATGGTCAT [GTGCAC_site9879]	8.77
GATAGATAATATTTTAGTACATAAACAATTAAATAT [XGTACX_site4125]	6.52
AATATTTTATTTTTTCTCATTAAAAATTTTTTTTTT [CACACA_negctrl_site364]	6.37
ATATTTTTTTTCATTTGTACACATAAAATTATATAG [XGTACX_site8260]	6.68
CATATTTACATTAAGTGTACTTATGAATATATATAC [XGTACX_site7962]	6.2
ATAATATTTTATAATTGTACTTTTTATAAATATAAA [XGTACX_site1940]	6.14
TTTATTAAAACAAAATGTACACACATATAATTTAAT [XGTACX_site1637]	6.39

Sequence	gcPBM binding intensity (ln)
TAAATTCTGTTTAAAAGTACAAATAATATTGTGCCT [XGTACX_site7805]	6.02
AAATGTTGAAATGATACACACATATATATATATATA [CACACA_site2517]	9.25
TGAAAGTGTATTAAAGTGCATATTATTTTATCTACC [GTGCAC_site9969]	8.63
TTAATCTTCATAAAATGTACAGAAGATTGAATATTC [XGTACX_site6213]	6.11
TTATATTTTTTTTGTAGTACATTATAGAATACACAC [XGTACX_site969]	6.58
TTAATAACAAAATAAACACACATATATAAATACACA [CACACA_site6849]	6.95
AAATTATATATAATAAATAATTTCTTTTTCTAAAAG [CACACA_negctrl_site8]	5.91
AAAAAAAAAAAAAAAAGTACACACTTTTGCCTACAT [XGTACX_site6583]	6.68
TTTTATAATTTCAAAGGATTCTTTAATATTATAAAT [CACACA_negctrl_site1812]	5.9
AATAATTGCTAAAGGTGTACAATACGTATATAAGAA [XGTACX_site4910]	8.18
AAATCAAAAACGTTTACACACATTCTTATTTAAATA [CACACA_site790]	7.07
TACAGAAATTTATATATATATATATATATATATATA [XGTACX_negctrl_site209]	9.41
TACATATATTTTTTATGTACTTACTTGTGTGTTTAT [XGTACX_site5126]	6.33
TGAGACATGAATGCAAGTACAAAAAGGAGAACAAAA [XGTACX_site6183]	7.07
GGAAAGACAGTTCACAGTACCCAGTAACTCTACGGA [XGTACX_site2009]	5.73
TTCATGCTTATATGTGCACACACAAAAGAAAAGAAA [CACACA_site1656]	10.8
ATAATACAATTTATAACACACACACTATAATACATA [CACACA_site8338]	6.97
AAATAATAAATTATAACACACATATATATATATATA [CACACA_site4045]	9.33
